Results from PubChem BioAssay AID1159614 (National Center for Advancing Translational Sciences (NCATS), 2016).
Out of some 45,000 compounds screened, about 65 (0.1%) were called active. Calls follow the shape of the dose curve; as a rule, active = well fitted activation curve with a large enough effect; inconclusive = small, poorly fitted or top-dose-only effect; inactive = no such curve, though single readings can be large or run the other way. The list shows a part of the results.

target: Galactocerebrosidase (Homo sapiens) (UniProt P54803); assay: A Novel Cell-Based Assay to Identify Small Molecules for B -Galactocerebrosidase; conditions: 145M-Twi-hGALC-G270D cells (Twitcher mouse brain line with human GALC G270D), HMU-beta-Gal fluorescence, 48 h; series mostly up to 57.5 µM; activation: at the top concentration; also: 0% is about no effect; nearly all actives have a fitted effect of over 65% in size
Summary of the method: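 Mutant human GALC (G270D), stably expressed in a Twitcher mouse brain cell line lacking endogenous GALC, is measured in live-treated cells via 6-hexadecanoylamino-4-methylumbelliferyl-β-galactoside hydrolysis (0.1 mM final, pH 5.2) with fluorescent detection.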

UniProt P54803, sequence (P54803 whole entry, looked up): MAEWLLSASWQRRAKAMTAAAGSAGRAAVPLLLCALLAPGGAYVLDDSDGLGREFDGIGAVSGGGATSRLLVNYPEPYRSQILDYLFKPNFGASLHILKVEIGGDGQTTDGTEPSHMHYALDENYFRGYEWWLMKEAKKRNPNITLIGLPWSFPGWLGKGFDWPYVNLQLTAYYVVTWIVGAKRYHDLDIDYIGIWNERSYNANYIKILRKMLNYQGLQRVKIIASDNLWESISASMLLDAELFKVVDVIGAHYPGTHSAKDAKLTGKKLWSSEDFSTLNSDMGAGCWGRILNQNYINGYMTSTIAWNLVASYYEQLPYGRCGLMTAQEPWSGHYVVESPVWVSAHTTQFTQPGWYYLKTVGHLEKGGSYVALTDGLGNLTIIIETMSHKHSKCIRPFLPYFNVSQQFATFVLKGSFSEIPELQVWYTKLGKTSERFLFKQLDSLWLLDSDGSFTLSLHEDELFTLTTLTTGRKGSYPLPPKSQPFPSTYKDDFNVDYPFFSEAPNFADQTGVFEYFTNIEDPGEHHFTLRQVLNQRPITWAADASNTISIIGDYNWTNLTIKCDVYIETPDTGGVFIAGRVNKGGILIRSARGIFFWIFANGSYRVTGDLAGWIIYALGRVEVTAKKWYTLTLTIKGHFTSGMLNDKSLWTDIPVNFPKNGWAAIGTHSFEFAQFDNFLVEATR

activation, inactive:
CCCc1ccc(NC(=O)C2CCCN(c3cnccn3)C2)cc1 (stereo unspecified) -8.55%, Cc1ccc(Cn2c(CNC(=O)c3ccc(Cl)c([N+](=O)[O-])c3)nc3cccnc32)cc1 -3.15%, CCOC(=O)c1cc(S(=O)(=O)Nc2c(C)cc(C)cc2C)[nH]n1 1.41%, Cc1ccc2nc(-c3ccc(NC(=O)COc4ccccc4C(C)(C)C)cc3)sc2c1 -10.8%, C[C@@H]1O[C@@H](OC[C@H]2O[C@@H](Oc3c(-c4ccc(O)c(O)c4)oc4cc(O)cc(O)c4c3=O)[C@H](O)[C@@H](O)[C@@H]2O)[C@H](O)[C@H](O)[C@H]1O -6.87%, O=C(Nc1ccccc1Br)c1cc(S(=O)(=O)NC2CCCCC2)ccc1F -15.1%, COc1cc(NC(=O)CN2CCCN(S(=O)(=O)c3ccc(F)cc3)CC2)cc(OC)c1 -20.5%, C=CCc1cccc2cc(-c3nc4ccc(C(=O)O)cc4[nH]3)c(=O)oc12 -15.6%, CCOC(=O)CCCCN(Cc1ccccc1F)S(=O)(=O)c1ccc(F)c(C(=O)Nc2cc(Cl)cc(Cl)c2)c1 -3.27%, COc1cc(-c2noc(-c3ccc(NC4CCCC4)c([N+](=O)[O-])c3)n2)cc(OC)c1OC -17.9%, COc1ccc(-c2noc(-c3cc(-c4ccc(F)cc4)n[nH]3)n2)cc1 -21.5%, O=C(NCc1ccc(F)cc1)c1nnc(Cc2cccc(F)c2)o1 -22.1%, CCOc1ccc(NC(=O)Nc2cc3c(cc2N2CCCCC2)n(C)c(=O)n3C)cc1 -31.4%, CCOC(=O)N1CCN(c2ncc3c(n2)CC(c2ccc(Cl)cc2)CC3=O)CC1 (stereo unspecified) -20.2%, CC(=O)NC(C)c1nc2ccccc2n1Cc1ccccc1Cl (stereo unspecified) 1.52%, CCOCCCNC(=O)c1ccc(Cn2c(=O)c3cccn3c3cccnc32)cc1 -9.66%, COc1ccc(C2C(C(=O)Nc3cccnc3)=C(C)Nc3nc(SCc4ccccc4)nn32)cc1 (stereo unspecified) -7.65%, Cc1ccc(C)c(NC(=O)C2CCCN2S(=O)(=O)c2ccc3c(c2)n(C)c(=O)c(=O)n3C)c1 (stereo unspecified) -24.7%, Cc1ccc(-c2cc3nccc(-c4cc([N+](=O)[O-])ccc4O)n3n2)cc1 1.64%, CCN1CCN(c2cc(C)c3cc(NC(=O)/C=C/c4cccc(OC)c4OC)ccc3n2)CC1 -12.4%, COc1ccc(C2=NC(C)(C)N(CC(=O)Nc3cc(OC)cc(OC)c3)C2=O)cc1 -15.1%, CN(c1ccc(F)cc1)S(=O)(=O)N1CCCC(C(=O)NCCc2ccccc2)C1 (stereo unspecified) -12.9%, Cc1nc2ccc(S(=O)(=O)NC(CC(C)C)C(=O)NCc3ccc(Cl)cc3)cc2s1 (stereo unspecified) -19.8%, Cc1c(C(=O)OC2CCCCCC2)[nH]c2c1C(=O)CC(c1ccccc1)C2 (stereo unspecified) -24.4%, CCOC(=O)C1CCN(C(=O)c2ccc3c(c2)sc2nc(-c4ccc(OC)cc4)cn23)CC1 9.25%, CCOc1ccc(S(=O)(=O)NCc2nc3cccnc3n2Cc2ccccc2OC)cc1 -4.32%, CCCCNC(=O)CSc1nc2n[nH]c(C)c2c(=N)n1-c1cccc(C)c1 -9.45%, CCCOc1ccc(-c2nc3ccc(Br)cc3c(=O)o2)cc1 -14.2%, CCCCN(CC)CCCNC(=O)c1cc2c(=O)oc3ccc(C)cc3c2s1 2.17%, CC1=C(C(=O)N2CCN(c3ccc(Cl)cc3)CC2)C2(CCC(C)CC2)OC1=O (stereo unspecified) 6.15%, O=C(Cn1c(=O)n(Cc2ccccc2)c(=O)c2sc3ccccc3c21)Nc1ccc(F)cc1 -12.2%, O=C(COc1ccc(Cl)cc1)NCC(c1cccs1)S(=O)(=O)c1ccc(F)cc1 (stereo unspecified) 3.69%, CCOC(=O)c1cc(-c2ccccc2)n(CC(=O)NCc2ccccc2)c1C -8.25%, COc1ccc(-c2nc3sc(CCNC(=O)C(=O)Nc4ccc(C)c(C)c4)c(C)n3n2)cc1 -3.53%, Cc1ccc(C)c(Cn2c(=O)n(CCCC(=O)NCCc3ccc(Cl)cc3)c(=O)c3ccccc32)c1 -8.17%, CC(C)c1ccc(NC(=O)c2cnc3sc(N4CCCC4)nn3c2=O)cc1 -7.88%, CCOC(=O)c1ccc(NC(=O)CC2C(=O)N(c3cccc(C)c3)C(=O)N2CCOC)cc1 (stereo unspecified) -14.7%, CCOc1ccc(-c2nonc2NC(=O)c2ccco2)cc1OCC -44.4%, Cc1ccc(OCC(=O)Nc2nnc(SCc3cc(=O)n4cccc(C)c4n3)s2)cc1 -24%, CCOc1cc(CNC(=O)NC2COc3ccccc3C2)cc(OCC)c1OCC (stereo unspecified) 12.8%, COc1ccc(OC)c(-c2csc(-c3c(N)c(C(=O)c4ccc(Cl)cc4)n4ccccc34)n2)c1 -17.1%, Cc1ccc(Cl)cc1NC(=O)CN1C(=O)COc2ccc(S(=O)(=O)N3CCCCCC3)cc21 9.68%, COc1ccccc1CCNC(=O)CCc1c(C)c2cc3c(C)c(C)oc3cc2oc1=O 0.599%, COc1cc(C(=O)NCCc2csc3nc(-c4ccccc4C)nn23)cc(OC)c1OC 4.46%, COc1ccc(NC(=O)Cn2c(=O)n(-c3ccc(OC)cc3)c(=O)c3ccc(C(=O)NCc4ccc(C)cc4)cc32)cc1 3.52%, O=C(OC1C[C@H]2CC[C@@H](C1)[N+]21CCCC1)C(O)(c1ccccc1)c1ccccc1 (stereo partly specified) -13.6%, CC(C)c1ccc(NC(=O)CC2Oc3ccccc3NC2=O)cc1 (stereo unspecified) 5.37%, Cc1cc(OCC(=O)N(Cc2ccc(N(C)C)cc2)C2CCS(=O)(=O)C2)cc(C)c1Cl (stereo unspecified) -3.89%, O=C(c1cccs1)c1cn(CCOc2ccccc2Cl)c2ccccc12 -20.8%, CCN(C(=O)C(Cc1ccccc1)NS(=O)(=O)c1cccc2nsnc12)c1ccccc1 (stereo unspecified) -26.5%, Cc1ccc(NC(=O)C(=O)NCC(c2ccc3c(c2)OCO3)N2CCN(c3ccccc3)CC2)cc1 (stereo unspecified) -9.85%, COCCCn1c(SCC(=O)Nc2ccccc2OC)nc2c(sc3ccccc32)c1=O 3.86%, Cc1ccc2nc(CN3CCN(C(=O)Nc4ccc(C)c(F)c4)CC3)oc2c1 -10.5%, COc1ccc(CCNC(=O)c2ccc(Cn3c(=O)c4ccccc4n(Cc4ccc(C)cc4)c3=O)cc2)cc1OC -8.51%, COc1ccc(NC(=O)CSc2nc(-c3ccc(F)cc3)c3cccc(C)c3n2)cc1 -11%, CCOc1ccc(CCNC(=O)c2ccc(-c3nc(COc4ccc(C)cc4)c(C)o3)cc2)cc1 1.03%, COc1cc(OC)c(NC(=O)Cc2ccc(-n3c(C)nc4cccnc43)cc2)cc1Cl -33.5%, O=C(Nc1ccc(F)cc1)[C@@H](c1ccccc1)N1Cc2ccccc2C1=O -9.62%, CCCCN(C)CCCNC(=O)c1cc(-c2cccnc2)nc2ccccc12 -6.61%, CCC1=Nc2cc(C(=O)NCc3ccc(C)cc3)ccc2Sc2ccc(C)cc21 -8.42%, CCOC(=O)C1CCCN(C(=O)Cn2ncn3c(cc4sc(CC)cc43)c2=O)C1 (stereo unspecified) -12.1%, COC(=O)c1ccc(OC)c(Cn2c(=O)n(-c3cccc(Cl)c3)c(=O)c3c4c(sc32)CN(C(C)=O)CC4)c1 -6.32%, COc1ccc(-c2oc3ncn4nc(COc5ccccc5C)nc4c3c2-c2ccc(OC)cc2)cc1 -17.1%, Cc1cccc(C)c1OCC(=O)Nc1c(C(=O)c2ccc(Br)cc2)oc2ccccc12 14.4%, COc1ccc2oc(=O)c(-c3cn4c(n3)sc3cc(F)ccc34)cc2c1 -16%, Cc1cccc(N2CCN(C(=O)C3CCN(S(=O)(=O)c4c(C)noc4C)CC3)CC2)c1C -17.9%, COc1ccc2c(CNCCc3cccs3)c(C(=O)O)n(Cc3ccccc3C)c2c1 -23.8%, O=C(CN1C(=O)COc2ccc(S(=O)(=O)N3CCCCCC3)cc21)N1CCN(c2cccc(C(F)(F)F)c2)CC1 -27.7%, COc1ccc(-c2noc(N3CCC(C(=O)N(C)c4cc(Cl)ccc4OC)CC3)n2)cc1 -2.85%, CCOc1cc2[nH]c(=O)n(CCCCC(=O)N3CCN(c4ccccc4)CC3)c(=O)c2cc1OCC -15.8%, CCC(C)NC(=O)c1[nH]c2cc(C)ccc2c1Sc1ccc(Cl)cc1 (stereo unspecified) -16.2%, COc1ccc(CCNC(=O)CCc2cn(Cc3ccc(C)cc3)c3ccccc23)c(OC)c1OC -2.89%, CCCCOc1ccc(S(=O)(=O)NCc2csc(-c3ccc(OC)cc3)n2)cc1 -9.67%, CCCn1c2ccccc2c2cnn(CC(=O)N(Cc3ccccc3)C(C)C)c(=O)c21 -0.635%, CCC(C(=O)Nc1cc(OC)ccc1OC)n1c(C)c2cnn(-c3ccccc3)c(=O)c2c1C (stereo unspecified) -9.25%, Cc1c(C(=O)N2CCCC2)oc2c1-c1nn(CC(=O)NC(C)c3ccccc3)cc1CC2 (stereo unspecified) 5.82%, Cc1ccc(S(=O)(=O)NCCc2nnc3ccc(SCc4ccc(F)cc4)nn23)cc1 4.71%, COc1ccc(-n2ccn(CC(=O)NCc3ccc(C)cc3)c(=O)c2=O)cc1OC -15.5%, Cc1cc(F)ccc1NC(=O)c1ccc2nc(Cc3ccccc3)oc2c1 -18.6%, COc1ccc(CC(=O)NCC(c2cccs2)S(=O)(=O)c2ccc(Cl)cc2)cc1 (stereo unspecified) -22.3%, CCN(CC)CC1CCCCN1CC(=O)N1c2ccccc2C(=O)Nc2cccnc21 (stereo unspecified) -17.6%, Cc1ccc(C)c(N2CCN(C(=O)c3cc(S(=O)(=O)N4CCC(C)CC4)cn3C)CC2)c1 1.43%, COc1ccccc1C(=O)c1cn(CC(=O)Nc2ccccc2F)c2nc(C)ccc2c1=O -6.57%, COc1ccccc1Cn1cc(C(=O)c2ccc(F)cc2)c(=O)c2cc3c(cc21)OCO3 -13.4%, Cc1ccc2oc(C(=O)Nc3cccc(-c4nc5ccccc5s4)c3)c(C)c2c1 -10.6%, Cc1ccc(Nc2ncc(C(=O)N3CCN(c4cccc(Cl)c4)CC3)c3ccccc23)cc1Cl -0.315%, CCN(Cc1ccccc1)S(=O)(=O)c1ccc(F)c(C(=O)Nc2cc(C(F)(F)F)ccc2Cl)c1 -11.4%, COc1ccc(N2C(=O)CSC23C(=O)N(CC(N)=O)c2ccccc23)cc1 (stereo unspecified) -27.7%, COC(=O)Cc1c(C)nc2nc(-c3ccc(C)cc3)[nH]n2c1=O -16.1%, CCOc1cccc2sc(NC(=O)CS(=O)(=O)c3ccc(C)cc3)nc12 -15.8%, COc1ccc(-n2c(=O)c3sc4ccccc4c3n(CC(=O)NC3CCCCC3)c2=O)cc1 -12.4%
